# The list shows a part of the results.
# Experiments:
# Assay in all cases: glycan array binding signal (z-score within array); higher = stronger binding
# Conditions in all cases: glycan notation: IUPAC condensed, linker removed
# [1] = biological target: Neu5Ac(a2-6)Gal(b1-4)GlcNAc(b1-2)Man(a1-3)[Man(a1-6)]Man(b1-4)GlcNAc(b1-4)GlcNAc
# How it was run: (§1)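 From the Consortium for Functional Glycomics database, 3228 arrays were curated, keeping only those whose protein sequence was available. Binding is given as a within-array Z-score averaged across arrays sharing a protein sequence and across linkers. Negative Z-scores can be read as non-binding.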
# [2] = biological target: Neu5Ac(a2-6)Gal(b1-4)GlcNAc(b1-2)Man(a1-3)[Neu5Ac(a2-3)Gal(b1-4)GlcNAc(b1-2)Man(a1-6)]Man(b1-4)GlcNAc(b1-4)GlcNAc
# How it was run: as §1
# [3] = biological target: Neu5Ac(a2-6)Gal(b1-4)GlcNAc(b1-2)Man(a1-3)[Neu5Ac(a2-6)Gal(b1-4)GlcNAc(b1-2)Man(a1-6)]Man(b1-4)GlcNAc(b1-4)GlcNAc
# How it was run: as §1
# [4] = biological target: Neu5Ac(a2-6)Gal(b1-4)GlcNAc(b1-2)Man(a1-3)[Neu5Ac(a2-6)Gal(b1-4)GlcNAc(b1-2)Man(a1-6)]Man(b1-4)GlcNAc(b1-4)[Fuc(a1-6)]GlcNAc
# How it was run: as §1
# [5] = biological target: Neu5Ac(a2-6)Gal(b1-4)GlcNAc(b1-2)Man(a1-6)Man(b1-4)GlcNAc(b1-4)GlcNAc
# How it was run: as §1
# [6] = biological target: Neu5Ac(a2-6)Gal(b1-4)GlcNAc(b1-2)Man(a1-6)[Gal(b1-4)GlcNAc(b1-2)Man(a1-3)]Man(b1-4)GlcNAc(b1-4)GlcNAc
# How it was run: as §1
# [7] = biological target: Neu5Ac(a2-6)Gal(b1-4)GlcNAc(b1-2)Man(a1-6)[GlcNAc(b1-2)Man(a1-3)]Man(b1-4)GlcNAc(b1-4)GlcNAc
# How it was run: as §1
# [8] = biological target: Neu5Ac(a2-6)Gal(b1-4)GlcNAc(b1-2)Man(a1-6)[Man(a1-3)]Man(b1-4)GlcNAc(b1-4)GlcNAc
# How it was run: as §1
# [9] = biological target: Neu5Ac(a2-6)Gal(b1-4)GlcNAc(b1-2)[Neu5Ac(a2-6)Gal(b1-4)GlcNAc(b1-4)]Man(a1-3)[GlcNAc(b1-4)][Neu5Ac(a2-6)Gal(b1-4)GlcNAc(b1-2)[Neu5Ac(a2-6)Gal(b1-4)GlcNAc(b1-6)]Man(a1-6)]Man(b1-4)GlcNAc(b1-4)GlcNAc
# How it was run: as §1
# [10] = biological target: Neu5Ac(a2-6)Gal(b1-4)GlcNAc(b1-2)[Neu5Ac(a2-6)Gal(b1-4)GlcNAc(b1-4)]Man(a1-3)[GlcNAc(b1-4)][Neu5Ac(a2-6)Gal(b1-4)GlcNAc(b1-4)Man(a1-6)]Man(b1-4)GlcNAc(b1-4)GlcNAc
# How it was run: as §1
# [11] = biological target: Neu5Ac(a2-6)Gal(b1-4)GlcNAc(b1-2)[Neu5Ac(a2-6)Gal(b1-4)GlcNAc(b1-6)]Man(a1-6)[Neu5Ac(a2-6)Gal(b1-4)GlcNAc(b1-2)Man(a1-3)][GlcNAc(b1-4)]Man(b1-4)GlcNAc(b1-4)GlcNAc
# How it was run: as §1
# [12] = biological target: Neu5Ac(a2-6)Gal(b1-4)GlcNAc(b1-3)Gal(b1-3)GlcNAc
# How it was run: as §1
# [13] = biological target: Neu5Ac(a2-6)Gal(b1-4)GlcNAc(b1-3)Gal(b1-4)GlcNAc
# How it was run: as §1
# [14] = biological target: Neu5Ac(a2-6)Gal(b1-4)GlcNAc(b1-3)Gal(b1-4)GlcNAc(b1-2)Man(a1-3)[Neu5Ac(a2-6)Gal(b1-4)GlcNAc(b1-3)Gal(b1-4)GlcNAc(b1-2)Man(a1-6)]GalNAc
# How it was run: as §1
# [15] = biological target: Neu5Ac(a2-6)Gal(b1-4)GlcNAc(b1-3)Gal(b1-4)GlcNAc(b1-3)Gal(b1-4)GlcNAc
# How it was run: as §1
# [16] = biological target: Neu5Ac(a2-6)Gal(b1-4)GlcNAc(b1-3)Gal(b1-4)GlcNAc(b1-3)Gal(b1-4)GlcNAc(b1-2)Man(a1-3)[Neu5Ac(a2-6)Gal(b1-4)GlcNAc(b1-3)Gal(b1-4)GlcNAc(b1-3)Gal(b1-4)GlcNAc(b1-2)Man(a1-6)]GalNAc
# How it was run: as §1
# [17] = biological target: Neu5Ac(a2-6)Gal(b1-4)GlcNAc(b1-3)Gal(b1-4)GlcNAc(b1-3)GalNAc
# How it was run: as §1
# [18] = biological target: Neu5Ac(a2-6)Gal(b1-4)GlcNAc(b1-3)Gal(b1-4)GlcNAc(b1-3)[Neu5Ac(a2-6)Gal(b1-4)GlcNAc(b1-3)Gal(b1-4)GlcNAc(b1-6)]GalNAc
# How it was run: as §1
# [19] = biological target: Neu5Ac(a2-6)Gal(b1-4)GlcNAc(b1-3)Gal(b1-4)GlcNAc(b1-6)[Gal(b1-3)]GalNAc
# How it was run: as §1
# [20] = biological target: Neu5Ac(a2-6)Gal(b1-4)GlcNAc(b1-3)Gal(b1-4)[Fuc(a1-3)]GlcNAc(b1-3)Gal(b1-4)[Fuc(a1-3)]GlcNAc
# How it was run: as §1
# [21] = biological target: Neu5Ac(a2-6)Gal(b1-4)GlcNAc(b1-3)GalNAc
# How it was run: as §1
# [22] = biological target: Neu5Ac(a2-6)Gal(b1-4)GlcNAc(b1-3)[Neu5Ac(a2-6)Gal(b1-4)GlcNAc(b1-6)]GalNAc
# How it was run: as §1
# [23] = biological target: Neu5Ac(a2-6)Gal(b1-4)GlcNAc(b1-6)GalNAc
# How it was run: as §1
# [24] = biological target: Neu5Ac(a2-6)Gal(b1-4)GlcNAc(b1-6)[Gal(b1-3)GlcNAc(b1-3)]Gal(b1-4)Glc
# How it was run: as §1
# [25] = biological target: Neu5Ac(a2-6)Gal(b1-4)GlcNAc(b1-6)[Gal(b1-3)]GalNAc
# How it was run: as §1
# [26] = biological target: Neu5Ac(a2-6)Gal(b1-4)GlcNAc6S
# How it was run: as §1
# Neu5Ac(a2-6)GalNAc = biological target: Neu5Ac(a2-6)GalNAc
# How it was run: as §1
# [27] = biological target: Neu5Ac(a2-6)GalNAc(b1-4)GlcNAc
# How it was run: as §1
# [28] = biological target: Neu5Ac(a2-6)GalNAc(b1-4)GlcNAc6S
# How it was run: as §1
# [29] = biological target: Neu5Ac(a2-6)GlcNAc(b1-4)GlcNAc
# How it was run: as §1
# [30] = biological target: Neu5Ac(a2-6)GlcNAc(b1-4)GlcNAc(b1-4)GlcNAc
# How it was run: as §1
binder,measurement,setting,value
Epa3to1 (Candida glabrata) (protein) MGSSHHHHHHSSGLVPRGSHMKRELSSQNPFGYPIGCSPQDVAIIPGLTMELYSYPIVSGTPPNCYDASYVDPEYPRTGYLKRKMVGKSTGVTGNLNYKYSVEKACMVKYGNLPAGYNYNEPLTVSNFTMILYGYFKAQTTGLHTFFVNADDLLYINFGAGNAFDCCKREDSKTKLGEYVAYDIWHVDSSKNKVSLFLEKDLYYPIRMFFNNREYDSSLDLSFSVNGATDQISDFSGYLYSVPDQPDTCPAHIGYDTTCR,glycan array binding signal (z-score),[1],0.106
same,glycan array binding signal (z-score),[2],-0.253
same,glycan array binding signal (z-score),[3],-0.511
same,glycan array binding signal (z-score),[4],-0.358
same,glycan array binding signal (z-score),[5],1.03
same,glycan array binding signal (z-score),[6],-0.585
same,glycan array binding signal (z-score),[7],0.092
same,glycan array binding signal (z-score),[8],0.233
same,glycan array binding signal (z-score),[9],-0.023
same,glycan array binding signal (z-score),[10],0.754
same,glycan array binding signal (z-score),[11],-0.191
same,glycan array binding signal (z-score),[12],4.57
same,glycan array binding signal (z-score),[13],-0.202
same,glycan array binding signal (z-score),[14],0.011
same,glycan array binding signal (z-score),[15],0.714
same,glycan array binding signal (z-score),[16],0.07
same,glycan array binding signal (z-score),[17],0.028
same,glycan array binding signal (z-score),[18],-0.125
same,glycan array binding signal (z-score),[19],-0.293
same,glycan array binding signal (z-score),[20],-0.035
same,glycan array binding signal (z-score),[21],-0.228
same,glycan array binding signal (z-score),[22],-0.078
same,glycan array binding signal (z-score),[23],0.097
same,glycan array binding signal (z-score),[24],-0.036
same,glycan array binding signal (z-score),[25],0.449
same,glycan array binding signal (z-score),[26],-0.26
same,glycan array binding signal (z-score),Neu5Ac(a2-6)GalNAc,-0.459
same,glycan array binding signal (z-score),[27],-0.995
same,glycan array binding signal (z-score),[28],-0.365
same,glycan array binding signal (z-score),[29],-0.094
same,glycan array binding signal (z-score),[30],-1.23
